Among all 39,000 compounds or so, about 220 (0.56%) showed activity. The list shows a part of the results.
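Note: static incubation at 37 °C against the wild-type strain, values averaged over two biological replicates.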

In the assay the test system is Escherichia coli K-12 BW25113. As to the kind of experiment: relative growth (OD600 normalised to plate interquartile mean) (fraction); higher = less growth inhibition, active = 0.2 or less. The conditions noted are these: 50 µM; LB; incubation time: overnight (16-24 h).
As for `C[C@@H]1CN([C@H](C)CO)C(=O)c2cccc(NS(C)(=O)=O)c2O[C@@H]1CN(C)Cc1ccc(C(F)(F)F)cc1`, the relative growth is inactive: 0.993.
Turning to `CC[C@@H]1OC[C@@H]2CN(C(=O)CN(C)C)CC[C@H]21`, the relative growth was inactive: 1.03.
With `CN(C)CC(=O)OCC(O)C(O)C(O)C(O)C(=O)[O-].[Na+]` (stereo not given), the relative growth is inactive: 1.12.
On to `COc1ccc(CN(C)C[C@H]2OCCCC[C@H](C)Oc3ccc(NC(=O)Nc4cccc5ccccc45)cc3C(=O)N([C@@H](C)CO)C[C@H]2C)cc1`, for which the relative growth is inactive: 1.02.
The value for `Cc1cccc(N(C)C(=S)Oc2ccc3ccccc3c2)c1` was inactive: 0.982; that for `CCCCC/C=C\C/C=C\CCCCCCCC(=O)O` was inactive: 0.904; that for `Cc1noc(C)c1NC(=O)N(C)C[C@@H]1Oc2c(NC(=O)NC(C)C)cccc2C(=O)N([C@H](C)CO)C[C@@H]1C` was inactive: 1.01.
For the compound `C[C@@H]1CN([C@H](C)CO)C(=O)c2cc(NC(=O)C3CCCCC3)ccc2O[C@@H](C)CCCCO[C@H]1CN(C)Cc1ccc(Cl)c(Cl)c1`, the relative growth was inactive: 0.911.
For `C[C@@H]1CN([C@@H](C)CO)C(=O)c2cc(NC(=O)Nc3ccc(C(F)(F)F)cc3)ccc2O[C@@H]1CN(C)C(=O)Nc1ccccc1`, the relative growth is inactive: 1.
Consider `O=C(C[C@@H]1CC[C@H](NS(=O)(=O)c2ccccc2F)[C@@H](CO)O1)NCCCN1CCOCC1`, for which the relative growth is inactive: 0.991.
Consider `COCCNC(=O)c1ccc(N2C[C@H]3C[C@@H](C2)c2cccc(=O)n2C3)c(NC(=O)c2ccc(OC)cc2)c1`, for which the relative growth is inactive: 0.987.
For the compound `C[C@@H]1CN([C@@H](C)CO)C(=O)Cc2cc(N(C)C)ccc2O[C@@H]1CN(C)S(=O)(=O)c1ccc(F)cc1`, the relative growth is inactive: 1.01.
With `C[C@H]1CN([C@@H](C)CO)C(=O)Cc2cc(NC(=O)Nc3cccc4ccccc34)ccc2O[C@@H]1CN(C)C(=O)Nc1ccc(F)cc1`, the relative growth was inactive: 0.993.
With `N[C@@H](COP(=O)(O)O)C(=O)O`, the relative growth is inactive: 1.01.
As to `C[C@H]1CN([C@@H](C)CO)C(=O)c2cc(NC(=O)c3ccncc3)ccc2O[C@@H]1CN(C)S(=O)(=O)c1ccc(F)cc1`, the relative growth was inactive: 1.
Regarding `COc1cccc(S(=O)(=O)N2C[C@@H](O)COC[C@@H]3O[C@@H](CC(=O)N4CCOCC4)CC[C@H]32)c1`, the relative growth was inactive: 0.998.
Turning to `Cc1ccc(S(=O)(=O)Nc2ccc3c(c2)C(=O)N([C@H](C)CO)C[C@@H](C)[C@H](CN(C)S(=O)(=O)c2ccccc2)O3)cc1`, the relative growth was inactive: 1.01.
For the compound `Cc1noc(C)c1NC(=O)N(C)C[C@H]1Oc2ccc(NC(=O)Cn3cnnn3)cc2C(=O)N([C@H](C)CO)C[C@@H]1C`, the relative growth was inactive: 0.959.
To `CN1CCN(C(=O)C[C@H]2CC[C@@H](NC(=O)Cc3ccccn3)[C@H](CO)O2)CC1` belongs inactive: 0.975.
On to `C[C@H](CO)N1C[C@H](C)[C@@H](CN(C)S(C)(=O)=O)OCCCC[C@H](C)Oc2ccc(NS(=O)(=O)c3ccc(F)cc3)cc2C1=O`, for which the relative growth was inactive: 0.989.
As for `CCC(=O)Nc1ccc(C)cc1C`, the relative growth is inactive: 1.04.
Consider `COCCOC(=O)N1C(=O)[C@@]2(c3ccccc31)[C@H](c1ccccc1OCCO)N1[C@H](c3ccccc3)[C@H](c3ccccc3)OC(=O)[C@H]1[C@@H]2C(=O)N1CCc2cc(OC)c(OC)cc2C1`, for which the relative growth was inactive: 1.05.
In the case of `CO[C@H]1CN(C(=O)c2ccnnc2)[C@H]2COC[C@@H]12`, the relative growth was inactive: 0.979.
In the case of `Cn1c(Nc2ccc(C(F)(F)F)cc2)nc2cc(Oc3ccnc(-c4ncc(C(F)(F)F)[nH]4)c3)ccc21`, the relative growth is inactive: 1.04.
For the compound `NC[C@@](O)(c1ccc(Cl)cc1)c1ccc(-c2cn[nH]c2)cc1`, the relative growth was inactive: 0.98.
For `COc1cccc(NC(=O)C[C@H]2CC[C@@H]3[C@H](COc4ccc(NC(=O)C5CCOCC5)cc4C(=O)N3C)O2)c1`, the relative growth was inactive: 0.986.
For `NC(=O)NCC#Cc1ccc2c(c1)[C@]1(C(=O)N2)[C@H](c2ccccc2OCCO)N2[C@H](c3ccccc3)[C@H](c3ccccc3)OC(=O)[C@H]2[C@@H]1C(=O)O`, the relative growth is inactive: 0.874.
Consider `COc1ccc(NC(=O)N(C)C[C@@H]2OCCCC[C@H](C)Oc3ccc(NC(=O)c4ccccc4)cc3C(=O)N([C@H](C)CO)C[C@@H]2C)cc1`, for which the relative growth is inactive: 0.988.
With `C[C@H](CO)N1C[C@H](C)[C@H](CN(C)C(=O)Nc2ccc(C(F)(F)F)cc2)Oc2ccc(NC(=O)Nc3ccc(C(F)(F)F)cc3)cc2CC1=O`, the relative growth was inactive: 1.01.
To `COc1ccc(S(=O)(=O)Nc2ccc3c(c2)C(=O)N([C@H](C)CO)C[C@@H](C)[C@@H](CN(C)CC2CCCCC2)OCCCC[C@H](C)O3)cc1` belongs inactive: 1; to `C[C@@H]1CN([C@@H](C)CO)C(=O)c2cc(NC(=O)Nc3ccccc3)ccc2O[C@@H](C)CCCCO[C@@H]1CN(C)Cc1ccccc1`, inactive: 1.
On to `C=CC[C@H](CC(=O)N[C@@H](CO)Cc1ccccc1)C(=O)N[C@@H](COC(=O)[C@@H](CC=C)Cc1ccc(F)cc1)Cc1c[nH]c2ccccc12`, for which the relative growth was inactive: 1.03.
To `CCc1nc2c(OCC(=O)c3ccc(Cl)cc3Cl)cccn2c1N(C=O)Cc1ccc(OC)cc1` belongs inactive: 1.03.
Turning to `C[C@@H]1CCCCO[C@@H](CN(C)S(=O)(=O)c2cccs2)[C@@H](C)CN([C@@H](C)CO)C(=O)c2cc(NC(=O)CCC(F)(F)F)ccc2O1`, the relative growth was inactive: 1.02.
On to `O=C(C[C@H]1C[C@H]2c3cc(NC(=O)NC4CCCC4)ccc3O[C@H]2[C@H](CO)O1)NCCN1CCCCC1`, for which the relative growth is inactive: 1.04.
For the compound `Cc1noc(C)c1NC(=O)Nc1ccc2c(c1)C(=O)N([C@H](C)CO)C[C@H](C)[C@@H](CN(C)C(=O)c1ccccc1)OCCCC[C@H](C)O2`, the relative growth is inactive: 0.999.
With `C[C@H](CO)N1C[C@H](C)[C@H](CN(C)Cc2ccc(C(=O)O)cc2)Oc2c(NC(=O)Nc3cccc4ccccc34)cccc2C1=O`, the relative growth is inactive: 0.986.
On to `O=C(C[C@@H]1CC[C@@H]2[C@H](COC[C@H](O)CN2S(=O)(=O)c2ccccc2)O1)NCc1ccc2c(c1)OCO2`, for which the relative growth was inactive: 0.99.
As for `COc1ccc2oc(C(C)=O)cc2c1`, the relative growth is inactive: 1.
Consider `C[C@H]1CN([C@@H](C)CO)C(=O)c2cccc(NC(=O)C3CC3)c2O[C@H]1CN(C)Cc1ccc2c(c1)OCO2`, for which the relative growth was inactive: 0.963.

The record behind these values is the supplement of paper PMC9446081.
